Measured values as given in the supplement of paper PMC12458215.

system: HEK293T; assay: plasma membrane surface immunostaining intensity (anti-HA, deep receptor scanning) (arbitrary fluorescence units); higher = higher plasma membrane expression; settings: GPCR class: A

| Sequence | plasma membrane surface immunostaining intensity |
| --- | --- |
| MSLNSSLSCRKELSNLTEEEGGEGGVIITQFIAIIVITIFVCLGNLVIVVTLYKKSYLLTLSNKFVFSLTLSNFLLSVLVLPFVVTSSIRREWIFGVVWCNFSALLYLLISSASMLTLGVIAIDRYYAVLYPMVYPMKITGNRAVMALVYIWLHSLIGCLPPLFGWSSVEFDEFKWMCVAAWHREPGYTAFWQIWCALFPFLVMLVCYGFIFRVARVKARKVHCGTVVIVEEDAQRTGRKNSSTSTSSSGSRRNAFQGVVYSANQCKALITILVVLGAFMVTWGPYMVVIASEALWGKSSVSPSLETWATWLSFASAVCHPLIYGLWNKTVRKELLGMCFGDRYYREPFVQRQRTSRLFSISNRITDLGLSPHLTALMAGGQPLGHSSSTGDTGFSCSQDSGTDMMLLEDYTSDDNPPSHCTCPPKRRSSVTFEDEVEQIKEAAKNSILHVKAEVHKSLDSYAASLAKAIEAEAKINLFGEEALPGVLVTARTVPGGGFGGRRGSRTLVSQRLQLQSIEEGDVLAAEQR [GPR161] | 4530 ± 950 |
| MGDRRFIDFQFQDSNSSLRPRLGNATANNTCIVDDSFKYNLNGAVYSVVFILGLITNSVSLFVFCFRMKMRSETAIFITNLAVSDLLFVCTLPFKIFYNFNRHWPFGDTLCKISGTAFLTNIYGSMLFLTCISVDRFLAIVYPFRSRTIRTRRNSAIVCAGVWILVLSGGISASLFSTTNVNNATTTCFEGFSKRVWKTYLSKITIFIEVVGFIIPLILNVSCSSVVLRTLRKPATLSQIGTNKKKVLKMITVHMAVFVVCFVPYNSVLFLYALVRSQAITNCFLERFAKIMYPITLCLATLNCCFDPFIYYFTLESFQKSFYINAHIRMESLFKTETPLTTKPSLPAIQEEVSDQTTNNGGELMLESTF [LPAR4] | 917 ± 150 |
| MYSGNRSGGHGYWDGGGAAGAEGPAPAGTLSPAPLFSPGTYERLALLLGSIGLLGVGNNLLVLVLYYKFQRLRTPTHLLLVNISLSDLLVSLFGVTFTFVSCLRNGWVWDTVGCVWDGFSGSLFGIVSIATLTVLAYERYIRVVHARVINFSWAWRAITYIWLYSLAWAGAPLLGWNRYILDVHGLGCTVDWKSKDANDSSFVLFLFLGCLVVPLGVIAHCYGHILYSIRMLRCVEDLQTIQVIKILKYEKKLAKMCFLMIFTFLVCWMPYIVICFLVVNGHGHLVTPTISIVSYLFAKSNTVYNPVIYVFMIRKFRRSLLQLLCLRLLRCQRPAKDLPAAGSEMQIRPIVMSQKDGDRPKKKVTFNSSSIIFIITSDESLSVDDSDKTNGSKVDVIQVRPL [OPN3] | 622 ± 43 |
| MSQQNTSGDCLFDGVNELMKTLQFAVHIPTFVLGLLLNLLAIHGFSTFLKNRWPDYAATSIYMINLAVFDLLLVLSLPFKMVLSQVQSPFPSLCTLVECLYFVSMYGSVFTICFISMDRFLAIRYPLLVSHLRSPRKIFGICCTIWVLVWTGSIPIYSFHGKVEKYMCFHNMSDDTWSAKVFFPLEVFGFLLPMGIMGFCCSRSIHILLGRRDHTQDWVQQKACIYSIAASLAVFVVSFLPVHLGFFLQFLVRNSFIVECRAKQSISFFLQLSMCFSNVNCCLDVFCYYFVIKEFRMNIRAHRPSRVQLVLQDTTISRG [GPR55] | 6280 ± 65 |
| MDMADEPLNGSHTWLSIPFDLNGSVVSTNTSNQTEPYYDLTSNAVLTFIYFVVCIIGLCGNTLVIYVILRYAKMKTITNIYILNLAIADELFMLGLPFLAMQVALVHWPFGKAICRVVMTVDGINQFTSIFCLTVMSIDRYLAVVHPIKSAKWRRPRTAKMITMAVWGVSLLVILPIMIYAGLRSNQWGRSSCTINWPGESGAWYTGFIIYTFILGFLVPLTIICLCYLFIIIKVKSSGIRVGSSKRKKSEKKVTRMVSIVVAVFIFCWLPFYIFNVSSVSMAISPTPALKGMFDFVVVLTYANSCANPILYAFLSDNFKKSFQNVLCLVKVSGTDDGERSDSKQDKSRLNETTETQRTLLNGDLQTSI [SSTR2] | 4200 ± 750 |
| MNSSFHLHFLDLNLNATEGNLSGPNVKNKSSPCEDMGIAVEVFLTLGVISLLENILVIGAIVKNKNLHSPMYFFVCSLAVADMLVSMSSAWETITIYLLNNKHLVIADAFVRHIDNVFDSMICISVVASMCSLLAIAVDRYVTIFYALRYHHIMTARRSGAIIAGIWAFCTGCGIVFILYSESTYVILCLISMFFAMLFLLVSLYIHMFLLARTHVKRIAALPGASSARQRTSMQGAVTVTMLLGVFTVCWAPFFLHLTLMLSCPQNLYCSRFMSHFNMYLILIMCNSVMDPLIYAFRSQEMRKTFKEIICCRGFRIACSFPRRD [MC5R] | 5040 ± 330 |
| MDLEASLLPTGPNASNTSDGPDNLTSAGSPPRTGSISYINIIMPSVFGTICLLGIIGNSTVIFAVVKKSKLHWCNNVPDIFIINLSVVDLLFLLGMPFMIHQLMGNGVWHFGETMCTLITAMDANSQFTSTYILTAMAIDRYLATVHPISSTKFRKPSVATLVICLLWALSFISITPVWLYARLIPFPGGAVGCGIRLPNPDTDLYWFTLYQFFLAFALPFVVITAAYVRILQRMTSSVAPASQRSIRLRTKRVTRTAIAICLVFFVCWAPYYVLQLTQLSISRPTLTFVYLYNAAISLGYANSCLNPFVYIVLCETFRKRLVLSVKPAAQGQLRAVSNAQTADEERTESKGT [MCHR1] | 6450 ± 72 |
| MKQRFSALQLLKLLLLLQPPLPRALREALCPEPCNCVPDGALRCPGPTAGLTRLSLAYLPVKVIPSQAFRGLNEVIKIEISQIDSLERIEANAFDNLLNLSEILIQNTKNLRYIEPGAFINLPRLKYLSICNTGIRKFPDVTKVFSSESNFILEICDNLHITTIPGNAFQGMNNESVTLKLYGNGFEEVQSHAFNGTTLTSLELKENVHLEKMHNGAFRGATGPKTLDISSTKLQALPSYGLESIQRLIATSSYSLKKLPSRETFVNLLEATLTYPSHCCAFRNLPTKEQNFSHSISENFSKQCESTVRKVNNKTLYSSMLAESELSGWDYEYGFCLPKTPRCAPEPDAFNPCEDIMGYDFLRVLIWLINILAIMGNMTVLFVLLTSRYKLTVPRFLMCNLSFADFCMGLYLLLIASVDSQTKGQYYNHAIDWQTGSGCSTAGFFTVFASELSVYTLTVITLERWHTITYAIHLDQKLRLRHAILIMLGGWLFSSLIAMLPLVGVSNYMKVSICFPMDVETTLSQVYILTILILNVVAFFIICACYIKIYFAVRNPELMATNKDTKIAKKMAILIFTDFTCMAPISFFAISAAFKVPLITVTNSKVLLVLFYPINSCANPFLYAIFTKTFQRDFFLLLSKFGCCKRRAELYRRKDFSAYTSNCKNGFTGSNKPSQSTLKLSTLHCQGTALLDKTRYTEC [LHCGR] | 5790 ± 79 |
| MAAISTSIPVISQPQFTAMNEPQCFYNESIAFFYNRSGKHLATEWNTVSKLVMGLGITVCIFIMLANLLVMVAIYVNRRFHFPIYYLMANLAAADFFAGLAYFYLMFNTGPNTRRLTVSTWLLRQGLIDTSLTASVANLLAIAIERHITVFRMQLHTRMSNRRVVVVIVVIWTMAIVMGAIPSVGWNCICDIENCSNMAPLYSDSYLVFWAIFNLVTFVVMVVLYAHIFGYVRQRTMRMSRHSSGPRRNRDTMMSLLKTVVIVLGAFIICWTPGLVLLLLDVCCPQCDVLAYEKFFLLLAEFNSAMNPIIYSYRDKEMSATFRQILCCQRSENPTGPTEGSDRSASSLNHTILAGVHSNDHSVV [LPAR1] | 3480 ± 810 |
| MASTESSLLRSLGLSPGPGSSEVELDCWFDEDFKFILLPVSYAVVFVLGLGLNAPTLWLFIFRLRPWDATATYMFHLALSDTLYVLSLPTLIYYYAAHNHWPFGTEICKFVRFLFYWNLYCSVLFLTCISVHRYLGICHPLRALRWGRPRLAGLLCLAVWLVVAGCLVPNLFFVTTSNKGTTVLCHDTTRPEEFDHYVHFSSAVMGLLFGVPCLVTLVCYGLMARRLYQPLPGSAQSSSRLRSLRTIAVVLTVFAVCFVPFHITRTIYYLARLLEADCRVLNIVNVVYKVTRPLASANSCLDPVLYLLTGDKYRRQLRQLCGGGKPQPRTAASSLALVSLPEDSSCRWAATPQDSSCSTPRADRL [P2RY4] | 607 ± 59 |
| MNQTLNSSGTVESALNYSRGSTVHTAYLVLSSLAMFTCLCGMAGNSMVIWLLGFRMHRNPFCIYILNLAAADLLFLFSMASTLSLETQPLVNTTDKVHELMKRLMYFAYTVGLSLLTAISTQRCLSVLFPIWFKCHRPRHLSAWVCGLLWTLCLLMNGLTSSFCSKFLKFNEDRCFRVDMVQAALIMGVLTPVMTLSSLTLFVWVRRSSQQWRRQPTRLFVVVLASVLVFLICSLPLSIYWFVLYWLSLPPEMQVLCFSLSRLSSSVSSSANPVIYFLVGSRRSHRLPTRSLGTVLQQALREEPELEGGETPTVGTNEMGA [MRGPRD] | 1610 ± 380 |
| MACNSTSLEAYTYLLLNTSNASDSGSTQLPAPLRISLAIVMLLMTVVGFLGNTVVCIIVYQRPAMRSAINLLLATLAFSDIMLSLCCMPFTAVTLITVRWHFGDHFCRLSATLYWFFVLEGVAILLIISVDRFLIIVQRQDKLNPRRAKVIIAVSWVLSFCIAGPSLTGWTLVEVPARAPQCVLGYTELPADRAYVVTLVVAVFFAPFGVMLCAYMCILNTVRKNAVRVHNQSDSLDLRQLTRAGLRRLQRQQQVSVDLSFKTKAFTTILILFVGFSLCWLPHSVYSLLSVFSQRFYCGSSFYATSTCVLWLSYLKSVFNPIVYCWRIKKFREACIELLPQTFQILPKVPERIRRRIQPSTVYVCNENQSAV [GPR45] | 5440 ± 330 |
| MTEVLWPAVPNGTDAAFLAGPGSSWGNSTVASTAAVSSSFKCALTKTGFQFYYLPAVYILVFIIGFLGNSVAIWMFVFHMKPWSGISVYMFNLALADFLYVLTLPALIFYYFNKTDWIFGDAMCKLQRFIFHVNLYGSILFLTCISAHRYSGVVYPLKSLGRLKKKNAICISVLVWLIVVVAISPILFYSGTGVRKNKTITCYDTTSDEYLRSYFIYSMCTTVAMFCVPLVLILGCYGLIVRALIYKDLDNSPLRRKSIYLVIIVLTVFAVSYIPFHVMKTMNLRARLDFQTPAMCAFNDRVYATYQVTRGLASLNSCVDPILYFLAGDTFRRRLSRATRKASRRSEANLQSKSEDMTLNILPEFKQNGDTSL [P2RY1] | 6180 ± 140 |
| MSGMEKLQNASWIYQQKLEDPFQKHLNSTEEYLAFLCGPRRSHFFLPVSVVYVPIFVVGVIGNVLVCLVILQHQAMKTPTNYYLFSLAVSDLLVLLLGMPLEVYEMWRNYPFLFGPVGCYFKTALFETVCFASILSITTVSVERYVAILHPFRAKLQSTRRRALRILGIVWGFSVLFSLPNTSIHGIKFHYFPNGSLVPGSATCTVIKPMWIYNFIIQVTSFLFYLLPMTVISVLYYLMALRLKKDKSLEADEGNANIQRPCRKSVNKMLFVLVLVFAICWAPFHIDRLFFSFVEEWSESLAAVFNLVHVVSGVFFYLSSAVNPIIYNLLSRRFQAAFQNVISSFHKQWHSQHDPQLPPAQRNIFLTECHFVELTEDIGPQFPCQSSMHNSHLPAALSSEQMSRTNYQSFHFNKT [NMUR2] | 467 ± 39 |
| MDPTVPVFGTKLTPINGREETPCYNQTLSFTVLTCIISLVGLTGNAVVLWLLGYRMRRNAVSIYILNLAAADFLFLSFQIIRLPLRLINISHLIRKILVSVMTFPYFTGLSMLSAISTERCLSVLWPIWYRCRRPTHLSAVVCVLLWGLSLLFSMLEWRFCDFLFSGADSSWCETSDFIPVAWLIFLCVVLCVSSLVLLVRILCGSRKMPLTRLYVTILLTVLVFLLCGLPFGILGALIYRMHLNLEVLYCHVYLVCMSLSSLNSSANPIIYFFVGSFRQRQNRQNLKLVLQRALQDKPEVDKGEGQLPEESLELSGSRLGP [MRGPRX4] | 690 ± 80 |
| MNSWDAGLAGLLVGTMGVSLLSNALVLLCLLHSADIRRQAPALFTLNLTCGNLLCTVVNMPLTLAGVVAQRQPAGDRLCRLAAFLDTFLAANSMLSMAALSIDRWVAVVFPLSYRAKMRLRDAALMVAYTWLHALTFPAAALALSWLGFHQLYASCTLCSRRPDERLRFAVFTGAFHALSFLLSFVVLCCTYLKVLKVARFHCKRIDVITMQTLVLLVDLHPSVRERCLEEQKRRRQRATKKISTFIGTFLVCFAPYVITRLVELFSTVPIGSHWGVLSKCLAYSKAASDPFVYSLLRHQYRKSCKEILNRLLHRRSIHSSGLTGDSHSQNILPVSE [GPR26] | 1100 ± 180 |

± gives the uncertainty stated by the source.
